Data from patent US20240277738A1, “GAMETOCYTOCIDAL COMPOUND” (Eberhard Karls Universität Tübingen Medizinische Fakultãt, priority 2021, published 2024).

How the values were obtained:
[1] = tested on: Plasmodium knowlesi strain A1-H.1; details: read-out: IC50, 6 day-assays, A1-H.1; P. knowlesi A1-H.1, 6 days of incubation
[2] = tested on: Plasmodium knowlesi strain A1-H.1; assay: microbe, parasite or virus in culture
[3] = 72 h, read-out: IC50, 3 day-assays, A1-H.1
[4] = 144 h, read-out: IC50, 6 day-assays, A1-H.1

| SMILES | IC50 [1] [nM] | IC50 [2, 3] [nM] | IC50 [2, 4] [nM] |
| --- | --- | --- | --- |
| CC(C)[C@@H](N)C(=O)O[C@H](C)[C@@H]1C/C=C\CC[C@H](O)C(C)(C)[C@@H]2CC[C@@H](C)[C@@]3(O2)O[B-]24O[C@@H](C(=O)O1)[C@]1(O[C@@H](CC[C@H]1C)C(C)(C)[C@H](O)CCC[C@@H]1C[C@H](OC(=O)[C@@H]3O2)[C@@H](C)O1)O4.[H+] [Boromycin] | 3.4 ± 1.4 | – | – |
| CCN(CC)CCCC(C)Nc1ccnc2cc(Cl)ccc12 (stereo not shown) [Chloroquine, Chloroquine diphosphate] | – | 14.5 ± 9.3 | 17 ± 11 |
| CN(C)[C@@H]1C(O)=C(C(N)=O)C(=O)[C@@]2(O)C(O)=C3C(=O)c4c(O)ccc(Cl)c4[C@@](C)(O)[C@H]3C[C@@H]12 [Chlortetracycline] | – | > 18000 | 8320 ± 2630 |
| CCC[C@@H]1C[C@@H](C(=O)N[C@@H]([C@H]2O[C@H](SC)[C@H](O)[C@@H](O)[C@H]2O)[C@H](C)Cl)N(C)C1 [Clindamycin] | – | 77.1 ± 6.4 | 14.7 ± 12 |
| CN(C)[C@@H]1C(O)=C(C(N)=O)C(=O)[C@@]2(O)C(O)=C3C(=O)c4c(O)ccc(Cl)c4[C@@H](O)[C@H]3C[C@@H]12 [Demeclocycline] | – | > 18000 | 386 ± 262 |
| C[C@H]1c2cccc(O)c2C(=O)C2=C(O)[C@]3(O)C(=O)C(C(N)=O)=C(O)[C@@H](N(C)C)[C@@H]3[C@@H](O)[C@@H]21 [Doxycycline, Doxycycline Hyclate] | – | 1850 ± 1040 | 663 ± 508 |
| CN(C)[C@@H]1C(O)=C(C(N)=O)C(=O)[C@@]2(O)C(O)=C3C(=O)c4c(O)c(NC(=O)CN5CCCC5)cc(F)c4C[C@H]3C[C@@H]12 [Eravacycline] | – | 2320 ± 1520 | 12.5 ± 11 |
| CO[C@@H]1[C@@H](O[C@@H]2O[C@H](C)[C@@H](O[C@H]3C[C@@](C)(O)[C@@H](OC(=O)CC(C)C)[C@H](C)O3)[C@H](N(C)C)[C@H]2O)[C@@H](CC=O)C[C@@H](C)[C@@H](O)/C=C/C=C/C[C@@H](C)OC(=O)C[C@H]1OC(C)=O [Josamycin] | – | > 18000 | 164 ± 147 |
| CN(C)[C@@H]1C(O)=C(C(=O)NCNCCCC[C@H](N)C(=O)O)C(=O)[C@@]2(O)C(O)=C3C(=O)c4c(O)cccc4[C@@](C)(O)[C@H]3C[C@@H]12 [Lymecycline] | – | 15700 ± 5350 | 1150 ± 226 |
| C=C1c2c(Cl)ccc(O)c2C(=O)C2=C(O)[C@]3(O)C(=O)C(C(N)=O)=C(O)[C@@H](N(C)C)[C@@H]3[C@@H](O)[C@H]12 [Meclocycline] | – | 7690 ± 4390 | 1490 ± 547 |
| C=C1c2cccc(O)c2C(=O)C2=C(O)[C@]3(O)C(=O)C(C(N)=O)=C(O)[C@@H](N(C)C)[C@@H]3[C@@H](O)[C@H]12 [Methacycline] | – | > 18000 | 2990 ± 948 |
| CN(C)c1ccc(O)c2c1C[C@H]1C[C@H]3[C@H](N(C)C)C(O)=C(C(N)=O)C(=O)[C@@]3(O)C(O)=C1C2=O [Minocycline, Minocycline hydrochloride] | – | 3130 ± 1650 | 146 ± 172 |
| CO[C@H]1C[C@H](O[C@H]2[C@H](C)[C@@H](O[C@@H]3O[C@H](C)C[C@H](N(C)C)[C@H]3O)[C@@H](C)C[C@@]3(CO3)C(=O)[C@H](C)[C@@H](O)[C@@H](C)[C@@H](C)OC(=O)[C@@H]2C)O[C@@H](C)[C@@H]1O [Oleandomycin] | – | > 18000 | 3920 ± 2770 |
| CN(C)c1cc(CNCC(C)(C)C)c(O)c2c1C[C@H]1C[C@H]3[C@H](N(C)C)C(O)=C(C(N)=O)C(=O)[C@@]3(O)C(O)=C1C2=O [Omadacycline] | – | 1160 ± 339 | 285 ± 57 |
| CON(C)Cc1ccc(O)c2c1C[C@H]1C[C@H]3[C@H](N(C)C)C(O)=C(C(N)=O)C(=O)[C@@]3(O)C(O)=C1C2=O [Sarecycline, Sarecycline hydrochloride] | – | 1870 ± 1010 | 920 ± 512 |
| CO[C@H]1C[C@H](O[C@H]2[C@H](C)[C@@H](O[C@@H]3O[C@H](C)C[C@H](N(C)C)[C@H]3OC(C)=O)[C@@H](C)C[C@@]3(CO3)C(=O)[C@H](C)[C@@H](OC(C)=O)[C@@H](C)[C@@H](C)OC(=O)[C@@H]2C)O[C@@H](C)[C@@H]1OC(C)=O [Troleandomycin] | – | > 18000 | 2820 ± 1970 |

Where a name gives a salt, the structure may show the parent alone. Read-outs that look alike come from different tables or passages of the source.
